According to publication PMC4336329 (PLoS ONE, 2015):
The whole screen tested about 310,000 compounds, of which about 14,000 (4.5%) showed an effect of 50% or more. Effects have a minus sign here. The list shows a part of the results.

target: human ether-à-go-go-related gene (hERG) potassium channel (human, UniProt Q12809); experiment: primary screen, population patch clamp on CHO cells stably expressing hERG
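Note: peak tail current of the secondary pulse compared with the same well before compound.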

human ether-à-go-go-related gene (hERG) potassium channel, sequence (Q12809 whole entry, looked up): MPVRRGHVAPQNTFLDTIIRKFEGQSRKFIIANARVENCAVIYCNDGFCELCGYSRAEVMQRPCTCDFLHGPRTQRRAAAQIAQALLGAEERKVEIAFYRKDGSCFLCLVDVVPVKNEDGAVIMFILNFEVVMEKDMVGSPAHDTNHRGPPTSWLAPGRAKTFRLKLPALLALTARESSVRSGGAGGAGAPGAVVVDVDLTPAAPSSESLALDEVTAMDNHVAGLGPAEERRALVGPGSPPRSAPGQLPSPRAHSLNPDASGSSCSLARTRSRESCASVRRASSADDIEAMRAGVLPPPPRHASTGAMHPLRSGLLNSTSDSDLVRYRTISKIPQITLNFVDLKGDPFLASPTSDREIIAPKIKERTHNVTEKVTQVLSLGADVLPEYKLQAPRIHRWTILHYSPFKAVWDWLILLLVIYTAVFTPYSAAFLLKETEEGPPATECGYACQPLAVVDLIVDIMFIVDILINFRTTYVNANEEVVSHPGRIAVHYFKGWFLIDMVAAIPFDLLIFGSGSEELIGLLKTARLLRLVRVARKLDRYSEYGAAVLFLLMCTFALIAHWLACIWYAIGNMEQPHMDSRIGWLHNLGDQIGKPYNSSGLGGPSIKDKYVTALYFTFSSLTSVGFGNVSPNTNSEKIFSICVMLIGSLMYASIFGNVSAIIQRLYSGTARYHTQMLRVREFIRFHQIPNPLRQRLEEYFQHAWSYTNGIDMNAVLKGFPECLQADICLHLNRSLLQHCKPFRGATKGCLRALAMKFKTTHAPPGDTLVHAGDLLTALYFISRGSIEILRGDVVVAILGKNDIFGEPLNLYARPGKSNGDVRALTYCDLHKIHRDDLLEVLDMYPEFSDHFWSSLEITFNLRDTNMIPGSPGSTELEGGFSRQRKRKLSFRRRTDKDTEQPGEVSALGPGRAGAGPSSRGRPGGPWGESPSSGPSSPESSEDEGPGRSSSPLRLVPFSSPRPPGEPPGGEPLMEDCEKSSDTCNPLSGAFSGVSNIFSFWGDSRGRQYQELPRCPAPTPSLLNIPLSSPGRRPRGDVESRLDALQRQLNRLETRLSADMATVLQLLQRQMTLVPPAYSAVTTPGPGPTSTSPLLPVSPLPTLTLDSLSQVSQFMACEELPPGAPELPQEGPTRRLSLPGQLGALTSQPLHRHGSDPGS

Going from `CC1(C)Cc2c(sc(/N=C/N3CCOCC3)c2C#N)C(C)(C)N1` to `c1ccc(CN2CCOCCOCCOCC2)cc1`, the “hERG current change (%, negative = inhibition) at 10uM” value rises from 4.9% to 15.6%.

Compared with `COc1ccccc1NC(=O)Nc1nc(CC(=O)Nc2cccc(F)c2)cs1`, `COc1ccc(C(C)=O)cc1CSc1nncn1-c1ccccc1` is lower in “hERG current change (%, negative = inhibition) at 10uM” value: -3.26% for the first, -31.4% for the second.

First: Cc1ccc(NC(=O)CSc2sc3c(O)cc(=O)[nH]c3c2C#N)cc1C
Second: CC(/C=N/NC(=O)CSc1n[nH]c(=O)[nH]c1=O)=C\c1ccccc1
The “hERG current change (%, negative = inhibition) at 10uM” value of the first is lower: -2.68% for the first, 5.71% for the second.

Compared with `CCN(CC)S(=O)(=O)c1cc(Cl)ccc1OC`, `Cc1cc(Cl)ccc1OCC(=O)Nc1ccncc1` is lower in “hERG current change (%, negative = inhibition) at 10uM” value: -0.703% for the first, -5.88% for the second.

First: CC(C)C(NS(=O)(=O)c1cccs1)C(=O)NCc1ccccc1 (stereo not shown)
Second: CN1CCN(S(=O)(=O)c2cccc(C(=O)N(Cc3ccccc3)c3ccccc3)c2)CC1
The “hERG current change (%, negative = inhibition) at 10uM” value of the first is higher: 17.9% for the first, -19.9% for the second.

First: COCCCNC(=S)NC1CCCCC1
Second: S=C(Nc1ccc(Cl)cc1)NC1CC2CCCC(C1)N2C1CCCC1 (stereo not shown)
The “hERG current change (%, negative = inhibition) at 10uM” value of the first is higher: -10.9% for the first, -55.5% for the second.

Going from `Cc1ccnc(NS(=O)(=O)c2ccc(NC(=O)C3CC=CCC3C(=O)O)cc2)n1` (stereo not shown) to `O=C(Nc1ccccc1)c1ccc(S(=O)(=O)NCC2CCCO2)cc1` (stereo not shown), the “hERG current change (%, negative = inhibition) at 10uM” value falls from 7.5% to 2.12%.

Compared with `Cn1c(N)c(C(=O)COC(=O)c2ccc(OC(F)F)cc2)c(=O)n(C)c1=O`, `CC(C)(Oc1ccc(CCNC(=O)c2ccc(-c3ccccc3)o2)cc1)C(=O)O` is higher in “hERG current change (%, negative = inhibition) at 10uM” value: -11.8% for the first, 14% for the second.

Going from `Cc1[nH]c2c(C(=O)N3CCCC(CCC(=O)NCc4ccccc4F)C3)cccc2c1C` (stereo not shown) to `O=C(NCCc1ccc(Cl)cc1)C1CCN(C(=O)c2ccc(F)cc2)CC1`, the “hERG current change (%, negative = inhibition) at 10uM” value falls from 3.39% to -46.1%.

Compared with `CC(C)CSc1nnc2c(n1)[nH]c1ccccc12`, `CC(C)n1c(-c2ccc(N(C)C)cc2)nc2ccccc21` is lower in “hERG current change (%, negative = inhibition) at 10uM” value: 9.6% for the first, -44.7% for the second.

First: O=C(NC1CCS(=O)(=O)C1)c1cccc(S(=O)(=O)N2CCCCCC2)c1 (stereo not shown)
Second: CCOc1ccc(S(=O)(=O)N2CCCCC2)cc1NC(=O)CN1C(=O)NC(C)(c2ccccc2)C1=O (stereo not shown)
The “hERG current change (%, negative = inhibition) at 10uM” value of the first is higher: 1.79% for the first, -35.5% for the second.

Compared with `COC(=O)c1cnn(-c2nc3c(C)cccc3s2)c1C`, `Cc1cc(C=O)c(C)n1-c1ccc(Cl)c(C(=O)O)c1` is higher in “hERG current change (%, negative = inhibition) at 10uM” value: -18.5% for the first, 28.8% for the second.

Going from `O=C(c1ccc2nc(-c3ccccc3)c(-c3ccccc3)nc2c1)N1CCCCC1` to `O=C(O)c1ccc(CSc2nnc(-c3ccccc3)n2-c2ccccc2)cc1`, the “hERG current change (%, negative = inhibition) at 10uM” value rises from -19.7% to 5.45%.

First: CON(C)c1nc(NCC(C)C)nc(OCC#N)n1
Second: COc1cccc(C(=O)N(C)c2nnc(-c3ccncc3)s2)c1
The “hERG current change (%, negative = inhibition) at 10uM” value of the first is higher: -3.4% for the first, -4.78% for the second.

First: COc1ccc(-c2noc(N3CCC(C(=O)Nc4cc(OC)c(OC)c(OC)c4)CC3)n2)cc1
Second: COc1ccc(NC(=O)CSc2nnc(-c3cccnc3)o2)cc1
The “hERG current change (%, negative = inhibition) at 10uM” value of the first is higher: -3.06% for the first, -10.1% for the second.

Going from `Cc1ccc(N2C(=O)CSC2c2ccccn2)cc1Cl` (stereo not shown) to `Cc1ccc(NC(=O)COc2ccc(-n3ccnc3)cc2)cc1Cl`, the “hERG current change (%, negative = inhibition) at 10uM” value falls from 5.85% to -33.6%.

First: Cc1ccc(-n2c(-c3ccccc3)nnc2-c2cccs2)cc1
Second: CCc1cc(C(=O)c2ccccc2)c(N)s1
The “hERG current change (%, negative = inhibition) at 10uM” value of the first is higher: 23.9% for the first, -4.5% for the second.

First: O=C(CSc1nc2ccc(Cl)cc2[nH]1)NC1CCCc2ccccc21 (stereo not shown)
Second: CS(=O)(=O)N(CC(=O)Nc1ccccc1Sc1ccccc1)C1CCCCC1
The “hERG current change (%, negative = inhibition) at 10uM” value of the first is higher: 16.5% for the first, 4.04% for the second.

Compared with `COc1ccc(CCNC(=S)N2CCN(S(=O)(=O)c3ccc(C)cc3)CC2)cc1`, `COCc1c(C(=O)N2CCN(S(=O)(=O)c3ccccc3Cl)CC2)oc2ccccc12` is lower in “hERG current change (%, negative = inhibition) at 10uM” value: 12.2% for the first, -13.9% for the second.

First: CC(C)(C)OC(=O)NCc1ccc(CNC(=O)c2[nH]cnc2C(=O)N[C@@H](Cc2ccccc2)C(=O)OC(C)(C)C)cc1
Second: O=C(NCc1ccccn1)C(=O)N/N=C/c1ccccc1O
The “hERG current change (%, negative = inhibition) at 10uM” value of the first is lower: -3.1% for the first, 12.9% for the second.

First: Fc1cccc(Cc2noc(CN3CCN(c4cnccn4)CC3)n2)c1
Second: CC(=O)c1nn(-c2cccc(Br)c2)cc1C(=O)c1ccco1
The “hERG current change (%, negative = inhibition) at 10uM” value of the first is lower: -10.9% for the first, 6.24% for the second.

With `O=C1C2C3CC(C2C(=O)N1c1cccc(Cl)c1)[C@H](O)C3O` (stereo partly shown) the “hERG current change (%, negative = inhibition) at 10uM” value was 9.69%.
